Reference: the supplement of paper PMC8728848
Some of the results follow.

Columns and labels:
Test in all cases: glycan array binding signal (z-score within array); higher = stronger binding
Conditions in all cases: glycan notation: IUPAC condensed, linker removed
GalNAc(b1-4)Gal(b1-4)Glc = target: GalNAc(b1-4)Gal(b1-4)Glc
Procedure, shortened: (§1)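 Negative Z-scores can be read as non-binding. The Z-score is calculated within each array and then averaged across arrays of one protein sequence at different concentrations or buffers and across linkers. Arrays, 3228 in all, were curated from the Consortium for Functional Glycomics database and kept only where the protein sequence was available.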

[1] = target: GalNAc(b1-4)Gal3S(b1-4)Glc
Procedure, shortened: as §1

[2] = target: GalNAc3S(b1-4)Gal3S(b1-4)Glc
Procedure, shortened: as §1

Glc(a1-2)Glc = target: Glc(a1-2)Glc
Procedure, shortened: as §1

[3] = target: Glc(a1-2)Glc(a1-3)Glc(a1-3)Man(a1-2)Man(a1-2)Man(a1-3)[Man(a1-3)[Man(a1-6)]Man(a1-6)]Man(b1-4)GlcNAc
Procedure, shortened: as §1

Glc(a1-3)Glc = target: Glc(a1-3)Glc
Procedure, shortened: as §1

[4] = target: Glc(a1-3)Glc(a1-3)Man(a1-2)Man(a1-2)Man(a1-3)[Man(a1-2)Man(a1-3)[Man(a1-2)Man(a1-6)]Man(a1-6)]Man(b1-4)GlcNAc(b1-4)GlcNAc
Procedure, shortened: as §1

[5] = target: Glc(a1-3)Glc(a1-3)Man(a1-2)Man(a1-2)Man(a1-3)[Man(a1-3)[Man(a1-6)]Man(a1-6)]Man(b1-4)GlcNAc
Procedure, shortened: as §1

[6] = target: Glc(a1-3)Man(a1-2)Man(a1-2)Man(a1-3)[Man(a1-2)Man(a1-3)[Man(a1-2)Man(a1-6)]Man(a1-6)]Man(b1-4)GlcNAc(b1-4)GlcNAc
Procedure, shortened: as §1

Glc(a1-4)Glc = target: Glc(a1-4)Glc
Procedure, shortened: as §1

Glc(a1-4)Glc(a1-4)Glc = target: Glc(a1-4)Glc(a1-4)Glc
Procedure, shortened: as §1

[7] = target: Glc(a1-4)Glc(a1-4)Glc(a1-4)Glc
Procedure, shortened: as §1

[8] = target: Glc(a1-4)Glc(a1-4)Glc(a1-4)Glc(a1-4)Glc
Procedure, shortened: as §1

[9] = target: Glc(a1-4)Glc(a1-4)Glc(a1-4)Glc(a1-4)Glc(a1-4)Glc
Procedure, shortened: as §1

[10] = target: Glc(a1-4)Glc(a1-4)Glc(a1-4)Glc(a1-4)Glc(a1-4)Glc(a1-4)Glc
Procedure, shortened: as §1

[11] = target: Glc(a1-4)Glc(a1-4)Glc(a1-4)Glc(a1-4)Glc(a1-4)Glc(a1-4)Glc(a1-4)Glc
Procedure, shortened: as §1

[12] = target: Glc(a1-4)Glc(a1-4)Glc(a1-4)Glc(a1-4)Glc(a1-4)Glc(a1-4)Glc(a1-4)Glc(a1-4)Glc
Procedure, shortened: as §1

[13] = target: Glc(a1-4)Glc(a1-4)Glc(a1-4)Glc(a1-4)Glc(a1-4)Glc(a1-4)Glc(a1-4)Glc(a1-4)Glc(a1-4)Glc
Procedure, shortened: as §1

[14] = target: Glc(a1-4)Glc(a1-4)Glc(a1-4)Glc(a1-4)Glc(a1-4)Glc(a1-4)Glc(a1-4)Glc(a1-4)Glc(a1-4)Glc(a1-4)Glc
Procedure, shortened: as §1

[15] = target: Glc(a1-4)Glc(a1-4)Glc(a1-4)Glc(a1-4)Glc(a1-4)Glc(a1-4)Glc(a1-4)Glc(a1-4)Glc(a1-4)Glc(a1-4)Glc(a1-4)Glc
Procedure, shortened: as §1

[16] = target: Glc(a1-4)Glc(a1-4)Glc(a1-4)Glc(a1-4)Glc(a1-4)Glc(a1-4)Glc(a1-4)Glc(a1-4)Glc(a1-4)Glc(a1-4)Glc(a1-4)Glc(a1-4)Glc
Procedure, shortened: as §1

Glc(a1-6)Glc = target: Glc(a1-6)Glc
Procedure, shortened: as §1

[17] = target: Glc(a1-6)Glc(a1-4)Glc(a1-4)Glc
Procedure, shortened: as §1

Glc(a1-6)Glc(a1-6)Glc = target: Glc(a1-6)Glc(a1-6)Glc
Procedure, shortened: as §1

[18] = target: Glc(a1-6)Glc(a1-6)Glc(a1-6)Glc
Procedure, shortened: as §1

[19] = target: Glc(a1-6)Glc(a1-6)Glc(a1-6)Glc(a1-6)Glc
Procedure, shortened: as §1

[20] = target: Glc(a1-6)Glc(a1-6)Glc(a1-6)Glc(a1-6)Glc(a1-6)Glc
Procedure, shortened: as §1

[21] = target: Glc(a1-6)Glc(a1-6)Glc(a1-6)Glc(a1-6)Glc(a1-6)Glc(a1-6)Glc
Procedure, shortened: as §1

[22] = target: Glc(a1-6)Glc(a1-6)Glc(a1-6)Glc(a1-6)Glc(a1-6)Glc(a1-6)Glc(a1-6)Glc
Procedure, shortened: as §1

[23] = target: Glc(a1-6)Glc(a1-6)Glc(a1-6)Glc(a1-6)Glc(a1-6)Glc(a1-6)Glc(a1-6)Glc(a1-6)Glc
Procedure, shortened: as §1

[24] = target: Glc(a1-6)Glc(a1-6)Glc(a1-6)Glc(a1-6)Glc(a1-6)Glc(a1-6)Glc(a1-6)Glc(a1-6)Glc(a1-6)Glc
Procedure, shortened: as §1

[25] = target: Glc(a1-6)Glc(a1-6)Glc(a1-6)Glc(a1-6)Glc(a1-6)Glc(a1-6)Glc(a1-6)Glc(a1-6)Glc(a1-6)Glc(a1-6)Glc
Procedure, shortened: as §1

[26] = target: Glc(a1-6)Glc(a1-6)Glc(a1-6)Glc(a1-6)Glc(a1-6)Glc(a1-6)Glc(a1-6)Glc(a1-6)Glc(a1-6)Glc(a1-6)Glc(a1-6)Glc
Procedure, shortened: as §1

[27] = target: Glc(a1-6)Glc(a1-6)Glc(a1-6)Glc(a1-6)Glc(a1-6)Glc(a1-6)Glc(a1-6)Glc(a1-6)Glc(a1-6)Glc(a1-6)Glc(a1-6)Glc(a1-6)Glc
Procedure, shortened: as §1

Glc(b1-2)Glc = target: Glc(b1-2)Glc
Procedure, shortened: as §1

Glc(b1-3)Glc = target: Glc(b1-3)Glc
Procedure, shortened: as §1

Glc(b1-3)Glc(b1-3)Glc = target: Glc(b1-3)Glc(b1-3)Glc
Procedure, shortened: as §1

[28] = target: Glc(b1-3)Glc(b1-3)Glc(b1-3)Glc
Procedure, shortened: as §1

[29] = target: Glc(b1-3)Glc(b1-3)Glc(b1-3)Glc(b1-3)Glc
Procedure, shortened: as §1

[30] = target: Glc(b1-3)Glc(b1-3)Glc(b1-3)Glc(b1-3)Glc(b1-3)Glc
Procedure, shortened: as §1

[31] = target: Glc(b1-3)Glc(b1-3)Glc(b1-3)Glc(b1-3)Glc(b1-3)Glc(b1-3)Glc
Procedure, shortened: as §1

[32] = target: Glc(b1-3)Glc(b1-3)Glc(b1-3)Glc(b1-3)Glc(b1-3)Glc(b1-3)Glc(b1-3)Glc
Procedure, shortened: as §1

[33] = target: Glc(b1-3)Glc(b1-3)Glc(b1-3)Glc(b1-3)Glc(b1-3)Glc(b1-3)Glc(b1-3)Glc(b1-3)Glc
Procedure, shortened: as §1

[34] = target: Glc(b1-3)Glc(b1-3)Glc(b1-3)Glc(b1-3)Glc(b1-3)Glc(b1-3)Glc(b1-3)Glc(b1-3)Glc(b1-3)Glc
Procedure, shortened: as §1

[35] = target: Glc(b1-3)Glc(b1-3)Glc(b1-3)Glc(b1-3)Glc(b1-3)Glc(b1-3)Glc(b1-3)Glc(b1-3)Glc(b1-3)Glc(b1-3)Glc
Procedure, shortened: as §1

Measured: glycan array binding signal (z-score)

B1: MIC4-A5 (Toxoplasma gondii), Q9XZH7 (protein)
chain: SPDFHDEVECVHTGNIGSKAQTIGEVKRASSLSECRARCQAEKECSHYTYNVKSGLCYPKRGKPQFYKYLGDMTGSRTCDTS
-0.306: Glc(a1-3)Glc | [15]
-0.313: Glc(a1-4)Glc(a1-4)Glc | [8]
-0.197: [1]
-0.301: [10] | Glc(b1-3)Glc
-0.309: [14]
-0.316: Glc(a1-6)Glc
-0.319: GalNAc(b1-4)Gal(b1-4)Glc | [4]
-0.317: [12] | [17]
-0.307: [7]
-0.303: [11]
-0.283: [9]
-0.299: Glc(a1-4)Glc
-0.32: [27] | Glc(b1-2)Glc
-0.305: [13] | [16]
-0.323: all other assays above
